# Results as given in the supplement of paper PMC8728848.
# Some of the results follow.
# Experiments:
# Experiment in all cases: glycan array binding signal (z-score within array); higher = stronger binding
# Conditions in all cases: glycan notation: IUPAC condensed, linker removed
# [1] = molecular target: Gal(b1-4)GlcNAc(b1-3)Gal(b1-4)[Fuc(a1-3)]GlcNAc(b1-3)Gal(b1-4)[Fuc(a1-3)]GlcNAc
# Procedure, shortened: (§1)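 Columns mapping to the same glycan were averaged after glycan names were converted to IUPAC-condensed notation. The data come from 3228 arrays in the Consortium for Functional Glycomics database, limited to those with an available protein sequence. Binding is reported as a within-array Z-score averaged across arrays of one protein sequence and across linkers.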
# [2] = molecular target: Gal(b1-4)GlcNAc(b1-3)GalNAc
# Procedure, shortened: as §1
# [3] = molecular target: Gal(b1-4)GlcNAc(b1-3)[Gal(b1-4)GlcNAc(b1-6)]Gal(b1-4)GlcNAc
# Procedure, shortened: as §1
# [4] = molecular target: Gal(b1-4)GlcNAc(b1-3)[Gal(b1-4)GlcNAc(b1-6)]GalNAc
# Procedure, shortened: as §1
# [5] = molecular target: Gal(b1-4)GlcNAc(b1-3)[GlcNAc(b1-6)]Gal(b1-4)GlcNAc
# Procedure, shortened: as §1
# [6] = molecular target: Gal(b1-4)GlcNAc(b1-6)Gal(b1-4)GlcNAc
# Procedure, shortened: as §1
# [7] = molecular target: Gal(b1-4)GlcNAc(b1-6)GalNAc
# Procedure, shortened: as §1
# [8] = molecular target: Gal(b1-4)GlcNAc(b1-6)[Gal(b1-3)]GalNAc
# Procedure, shortened: as §1
# Gal3S(b1-3)GalNAc = molecular target: Gal3S(b1-3)GalNAc
# Procedure, shortened: as §1
# Gal3S(b1-3)GlcNAc = molecular target: Gal3S(b1-3)GlcNAc
# Procedure, shortened: as §1
# [9] = molecular target: Gal3S(b1-3)[Fuc(a1-4)]GlcNAc
# Procedure, shortened: as §1
# Gal3S(b1-4)Glc = molecular target: Gal3S(b1-4)Glc
# Procedure, shortened: as §1
# Gal3S(b1-4)Glc6S = molecular target: Gal3S(b1-4)Glc6S
# Procedure, shortened: as §1
# Gal3S(b1-4)GlcNAc = molecular target: Gal3S(b1-4)GlcNAc
# Procedure, shortened: as §1
# Gal3S(b1-4)GlcNAc6S = molecular target: Gal3S(b1-4)GlcNAc6S
# Procedure, shortened: as §1
# [10] = molecular target: Gal3S(b1-4)[Fuc(a1-3)]Glc
# Procedure, shortened: as §1
# [11] = molecular target: Gal3S(b1-4)[Fuc(a1-3)]Glc6S
# Procedure, shortened: as §1
# Gal3S4S(b1-4)GlcNAc = molecular target: Gal3S4S(b1-4)GlcNAc
# Procedure, shortened: as §1
# Gal3S6S(b1-4)GlcNAc = molecular target: Gal3S6S(b1-4)GlcNAc
# Procedure, shortened: as §1
# Gal3S6S(b1-4)GlcNAc6S = molecular target: Gal3S6S(b1-4)GlcNAc6S
# Procedure, shortened: as §1
# Gal4S(b1-4)GlcNAc = molecular target: Gal4S(b1-4)GlcNAc
# Procedure, shortened: as §1
# Gal4S6S(b1-4)GlcNAc = molecular target: Gal4S6S(b1-4)GlcNAc
# Procedure, shortened: as §1
# Gal6S(b1-4)Glc = molecular target: Gal6S(b1-4)Glc
# Procedure, shortened: as §1
# Gal6S(b1-4)Glc6S = molecular target: Gal6S(b1-4)Glc6S
# Procedure, shortened: as §1
# Gal6S(b1-4)GlcNAc = molecular target: Gal6S(b1-4)GlcNAc
# Procedure, shortened: as §1
# Gal6S(b1-4)GlcNAc6S = molecular target: Gal6S(b1-4)GlcNAc6S
# Procedure, shortened: as §1
# GalNAc(a1-3)Gal = molecular target: GalNAc(a1-3)Gal
# Procedure, shortened: as §1
# GalNAc(a1-3)GalNAc = molecular target: GalNAc(a1-3)GalNAc
# Procedure, shortened: as §1
# [12] = molecular target: GalNAc(a1-3)GalNAc(a1-3)Gal(a1-4)Gal(b1-4)GlcNAc
# Procedure, shortened: as §1
# GalNAc(b1-3)Gal = molecular target: GalNAc(b1-3)Gal
# Procedure, shortened: as §1
# [13] = molecular target: GalNAc(b1-3)Gal(a1-4)Gal(b1-4)GlcNAc
# Procedure, shortened: as §1
# [14] = molecular target: GalNAc(b1-3)Gal(a1-4)Gal(b1-4)GlcNAc(b1-3)Gal(b1-4)Glc
# Procedure, shortened: as §1
# [15] = molecular target: GalNAc(b1-3)Gal(a1-6)Gal(b1-4)Glc
# Procedure, shortened: as §1
# GalNAc(b1-3)GalNAc = molecular target: GalNAc(b1-3)GalNAc
# Procedure, shortened: as §1
# GalNAc(b1-4)GlcNAc = molecular target: GalNAc(b1-4)GlcNAc
# Procedure, shortened: as §1
# [16] = molecular target: GalNAc(b1-4)GlcNAc(b1-2)Man(a1-3)[GalNAc(b1-4)GlcNAc(b1-2)Man(a1-6)]Man(b1-4)GlcNAc(b1-4)GlcNAc
# Procedure, shortened: as §1
# Glc(a1-4)Glc = molecular target: Glc(a1-4)Glc
# Procedure, shortened: as §1
# Glc(a1-6)Glc(a1-6)Glc = molecular target: Glc(a1-6)Glc(a1-6)Glc
# Procedure, shortened: as §1
# Glc(b1-4)Glc = molecular target: Glc(b1-4)Glc
# Procedure, shortened: as §1
# Glc(b1-6)Glc = molecular target: Glc(b1-6)Glc
# Procedure, shortened: as §1
# GlcA(b1-3)Gal = molecular target: GlcA(b1-3)Gal
# Procedure, shortened: as §1
# GlcA(b1-3)GlcNAc = molecular target: GlcA(b1-3)GlcNAc
# Procedure, shortened: as §1
# GlcA(b1-6)Gal = molecular target: GlcA(b1-6)Gal
# Procedure, shortened: as §1
# [17] = molecular target: GlcNAc(a1-3)Gal(b1-4)GlcNAc
# Procedure, shortened: as §1
# [18] = molecular target: GlcNAc(a1-4)Gal(b1-3)GlcNAc
# Procedure, shortened: as §1
binder,measurement,setting,value
GH98CBM51-1 (Streptococcus pneumoniae) (protein) MTYLSDMDWSSATHGDIDKTKTVQKDAPFTTGNKGEHTKISLLTSDDKVKYFDKGIGTVADSPSVISYDISGQGFEKFETYIGIDQSANSSRSDHAVVDRIEIEIDGKVVYSSSVTNPEGFRYNTQAQFISVTIPQNAKKISLKSFAGEHTWGDEVVFADAKLIKTVST,glycan array binding signal (z-score),[1],-0.195
same,glycan array binding signal (z-score),[2],-0.191
same,glycan array binding signal (z-score),[3],-0.191
same,glycan array binding signal (z-score),[4],-0.194
same,glycan array binding signal (z-score),[5],-0.187
same,glycan array binding signal (z-score),[6],-0.191
same,glycan array binding signal (z-score),[7],-0.185
same,glycan array binding signal (z-score),[8],-0.191
same,glycan array binding signal (z-score),Gal3S(b1-3)GalNAc,-0.184
same,glycan array binding signal (z-score),Gal3S(b1-3)GlcNAc,-0.175
same,glycan array binding signal (z-score),[9],-0.177
same,glycan array binding signal (z-score),Gal3S(b1-4)Glc,-0.183
same,glycan array binding signal (z-score),Gal3S(b1-4)Glc6S,-0.175
same,glycan array binding signal (z-score),Gal3S(b1-4)GlcNAc,-0.188
same,glycan array binding signal (z-score),Gal3S(b1-4)GlcNAc6S,-0.175
same,glycan array binding signal (z-score),[10],-0.181
same,glycan array binding signal (z-score),[11],-0.183
same,glycan array binding signal (z-score),Gal3S4S(b1-4)GlcNAc,-0.187
same,glycan array binding signal (z-score),Gal3S6S(b1-4)GlcNAc,-0.19
same,glycan array binding signal (z-score),Gal3S6S(b1-4)GlcNAc6S,-0.174
same,glycan array binding signal (z-score),Gal4S(b1-4)GlcNAc,-0.184
same,glycan array binding signal (z-score),Gal4S6S(b1-4)GlcNAc,-0.187
same,glycan array binding signal (z-score),Gal6S(b1-4)Glc,-0.188
same,glycan array binding signal (z-score),Gal6S(b1-4)Glc6S,-0.163
same,glycan array binding signal (z-score),Gal6S(b1-4)GlcNAc,-0.186
same,glycan array binding signal (z-score),Gal6S(b1-4)GlcNAc6S,-0.185
same,glycan array binding signal (z-score),GalNAc(a1-3)Gal,-0.186
same,glycan array binding signal (z-score),GalNAc(a1-3)GalNAc,-0.187
same,glycan array binding signal (z-score),[12],-0.187
same,glycan array binding signal (z-score),GalNAc(b1-3)Gal,-0.185
same,glycan array binding signal (z-score),[13],-0.181
same,glycan array binding signal (z-score),[14],-0.191
same,glycan array binding signal (z-score),[15],-0.189
same,glycan array binding signal (z-score),GalNAc(b1-3)GalNAc,-0.191
same,glycan array binding signal (z-score),GalNAc(b1-4)GlcNAc,-0.187
same,glycan array binding signal (z-score),[16],-0.182
same,glycan array binding signal (z-score),Glc(a1-4)Glc,-0.194
same,glycan array binding signal (z-score),Glc(a1-6)Glc(a1-6)Glc,-0.192
same,glycan array binding signal (z-score),Glc(b1-4)Glc,-0.188
same,glycan array binding signal (z-score),Glc(b1-6)Glc,-0.194
same,glycan array binding signal (z-score),GlcA(b1-3)Gal,-0.193
same,glycan array binding signal (z-score),GlcA(b1-3)GlcNAc,-0.186
same,glycan array binding signal (z-score),GlcA(b1-6)Gal,-0.19
same,glycan array binding signal (z-score),[17],-0.193
same,glycan array binding signal (z-score),[18],-0.189
